Data published in PMC6238599.
These are yes or no findings as the source states them, for the method shown. In cells and extracts the contact can be indirect. Some entries that bind do so weakly or less than the wild type.

By UniProt entry, the sequences of proteins in these tests, tags left out.
UniProt A2AGH6: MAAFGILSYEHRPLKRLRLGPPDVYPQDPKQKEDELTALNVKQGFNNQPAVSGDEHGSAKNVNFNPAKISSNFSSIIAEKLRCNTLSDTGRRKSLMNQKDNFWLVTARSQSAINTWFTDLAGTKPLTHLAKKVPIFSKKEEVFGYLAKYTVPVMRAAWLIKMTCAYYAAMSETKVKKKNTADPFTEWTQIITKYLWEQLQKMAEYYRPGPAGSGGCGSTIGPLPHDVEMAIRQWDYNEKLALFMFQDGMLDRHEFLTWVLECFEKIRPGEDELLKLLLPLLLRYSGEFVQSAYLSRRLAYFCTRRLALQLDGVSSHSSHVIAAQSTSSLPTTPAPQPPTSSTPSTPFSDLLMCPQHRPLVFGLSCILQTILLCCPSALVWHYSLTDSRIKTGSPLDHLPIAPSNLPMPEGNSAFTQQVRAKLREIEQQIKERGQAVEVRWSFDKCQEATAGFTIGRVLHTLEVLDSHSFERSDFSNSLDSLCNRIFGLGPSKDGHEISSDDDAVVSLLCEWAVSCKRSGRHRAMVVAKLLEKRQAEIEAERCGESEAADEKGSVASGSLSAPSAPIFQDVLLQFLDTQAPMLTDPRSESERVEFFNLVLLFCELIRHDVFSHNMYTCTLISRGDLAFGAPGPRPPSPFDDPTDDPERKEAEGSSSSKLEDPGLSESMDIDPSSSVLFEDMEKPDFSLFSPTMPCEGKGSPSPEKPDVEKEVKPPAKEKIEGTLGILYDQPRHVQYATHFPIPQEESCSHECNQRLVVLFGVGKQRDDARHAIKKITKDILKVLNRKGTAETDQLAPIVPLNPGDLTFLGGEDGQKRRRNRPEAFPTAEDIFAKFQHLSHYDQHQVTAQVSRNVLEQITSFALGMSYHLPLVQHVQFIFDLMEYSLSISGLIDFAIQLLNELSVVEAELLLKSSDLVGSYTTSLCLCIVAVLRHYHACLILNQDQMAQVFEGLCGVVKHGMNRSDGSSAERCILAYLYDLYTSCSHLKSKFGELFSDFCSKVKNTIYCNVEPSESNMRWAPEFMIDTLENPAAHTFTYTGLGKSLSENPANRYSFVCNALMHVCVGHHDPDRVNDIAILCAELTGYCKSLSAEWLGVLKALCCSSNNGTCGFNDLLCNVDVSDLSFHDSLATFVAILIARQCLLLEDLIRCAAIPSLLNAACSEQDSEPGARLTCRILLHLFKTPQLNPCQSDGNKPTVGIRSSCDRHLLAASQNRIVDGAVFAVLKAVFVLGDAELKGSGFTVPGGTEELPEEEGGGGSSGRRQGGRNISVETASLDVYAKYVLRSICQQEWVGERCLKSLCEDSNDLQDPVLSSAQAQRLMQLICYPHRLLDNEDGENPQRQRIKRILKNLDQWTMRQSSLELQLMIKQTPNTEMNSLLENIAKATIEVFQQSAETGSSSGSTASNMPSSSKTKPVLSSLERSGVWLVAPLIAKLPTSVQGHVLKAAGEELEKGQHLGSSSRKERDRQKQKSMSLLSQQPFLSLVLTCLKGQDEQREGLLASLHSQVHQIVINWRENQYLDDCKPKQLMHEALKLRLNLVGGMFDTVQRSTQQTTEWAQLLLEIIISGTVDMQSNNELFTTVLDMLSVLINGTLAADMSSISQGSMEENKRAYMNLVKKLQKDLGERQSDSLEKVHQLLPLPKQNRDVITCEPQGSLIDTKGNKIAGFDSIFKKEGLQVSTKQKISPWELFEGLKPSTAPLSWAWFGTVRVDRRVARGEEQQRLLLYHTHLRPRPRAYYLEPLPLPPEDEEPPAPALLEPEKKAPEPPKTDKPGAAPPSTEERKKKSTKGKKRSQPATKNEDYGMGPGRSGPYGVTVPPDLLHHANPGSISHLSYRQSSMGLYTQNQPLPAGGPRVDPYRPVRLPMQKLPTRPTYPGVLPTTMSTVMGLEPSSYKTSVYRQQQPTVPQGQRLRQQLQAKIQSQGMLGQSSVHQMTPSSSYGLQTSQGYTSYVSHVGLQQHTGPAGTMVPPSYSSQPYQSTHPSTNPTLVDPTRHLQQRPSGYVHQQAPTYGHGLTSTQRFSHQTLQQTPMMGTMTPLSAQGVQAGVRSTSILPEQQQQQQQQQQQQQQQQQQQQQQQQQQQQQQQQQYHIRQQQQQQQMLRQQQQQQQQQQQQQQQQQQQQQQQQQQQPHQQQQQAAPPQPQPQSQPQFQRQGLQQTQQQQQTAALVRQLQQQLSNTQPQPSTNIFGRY

B1: CDK8 (endogenous, MEFs) (protein, UniProt Q8R3L8 1-464)
chain: MDYDFKVKLSSERERVEDLFEYEGCKVGRGTYGHVYKAKRKDGKDDKDYALKQIEGTGISMSACREIALLRELKHPNVISLLKVFLSHADRKVWLLFDYAEHDLWHIIKFHRASKANKKPVQLPRGMVKSLLYQILDGIHYLHANWVLHRDLKPANILVMGEGPERGRVKIADMGFARLFNSPLKPLADLDPVVVTFWYRAPELLLGARHYTKAIDIWAIGCIFAELLTSEPIFHCRQEDIKTSNPYHHDQLDRIFNVMGFPADKDWEDIKKMPEHSTLMKDFRRNTYTNCSLIKYMEKHKVKPDSKAFHLLQKLLTMDPIKRITSEQAMQDPYFLEDPLPTSDVFAGCQIPYPKREFLTEEEPDEKGDKKTQQQQQGNNHTNGTGHPGNQDSGHAQGPPLKKVRVVPPTTTSGGLIMTSDYQRSNPHAAYPNPGPSTSQPQSSMGYSATSQQPPQYSHQTHRY
B2: MED30 (endogenous, MEFs) (protein, UniProt Q9CQI9 1-178)
chain: MSTPPLAPTGMASGPFGGPQAQQAAREVNTATLCRIGQETVQDIVYRTMEIFQLLRNMQLPNGVTYHTGTYQDRLTKLQDHLRQLSILFRKLRLVYDKCNENCGGMDPIPVEQLIPYVDEDGSKNDDRAGPPRFASEERREIVEVNKKLKQKNQQLKQIMDQLRNLIWDINAMLAMRN
B3: CARM1 (endogenous, HeLa), Q86X55 1-608 (enzyme)
chain: MAAAAAAVGPGAGGAGSAVPGGAGPCATVSVFPGARLLTIGDANGEIQRHAEQQALRLEVRAGPDSAGIALYSHEDVCVFKCSVSRETECSRVGKQSFIITLGCNSVLIQFATPNDFCSFYNILKTCRGHTLERSVFSERTEESSAVQYFQFYGYLSQQQNMMQDYVRTGTYQRAILQNHTDFKDKIVLDVGCGSGILSFFAAQAGARKIYAVEASTMAQHAEVLVKSNNLTDRIVVIPGKVEEVSLPEQVDIIISEPMGYMLFNERMLESYLHAKKYLKPSGNMFPTIGDVHLAPFTDEQLYMEQFTKANFWYQPSFHGVDLSALRGAAVDEYFRQPVVDTFDIRILMAKSVKYTVNFLEAKEGDLHRIEIPFKFHMLHSGLVHGLAFWFDVAFIGSIMTVWLSTAPTEPLTHWYQVRCLFQSPLFAKAGDTLSGTCLLIANKRQSYDISIVAQVDQTGSKSSNLLDLKNPFFRYTGTTPSPPPGSHYTSPSENMWNTGSTYNLSSGMAVAGMPTAYDLSSVIASGSSVGHNNLIPLANTGIVNHTHSRMGSIMSTGIVQGSSGAQGSGGGSTSAHYAVNSQFTMGGPAISMASPMSIPTNTMHYGS

Experiments:
[1] = molecular target: MED12 (endogenous, MEFs) (mouse (endogenous in MEFs)) (UniProt A2AGH6); test: co-IP; whole cell extracts of CARM1 WT (+/+) and KO (-/-) MEFs; IP with anti-MED12, Western blot for mediator subunits
[2] = molecular target: MED12 (endogenous, human cells) (human (endogenous in MCF-7 and HeLa)), Q93074; test: co-IP; HeLa whole cell lysates; reciprocal IP with IgG or antibodies to MED12, CDK8, MED4, MED30 and CARM1; Western blot for CARM1 or mediator subunits; conditions: remark: other sources report otherwise

| Binder | binding [1] | binding [2] |
| --- | --- | --- |
| B1 | binds |  |
| B2 | binds |  |
| B3 |  | no binding |
